This is one part of the list.
T1: UNK ZnF1-6 (called full-length) (human, UniProt Q9C0B0 30-357)
T1 sequence: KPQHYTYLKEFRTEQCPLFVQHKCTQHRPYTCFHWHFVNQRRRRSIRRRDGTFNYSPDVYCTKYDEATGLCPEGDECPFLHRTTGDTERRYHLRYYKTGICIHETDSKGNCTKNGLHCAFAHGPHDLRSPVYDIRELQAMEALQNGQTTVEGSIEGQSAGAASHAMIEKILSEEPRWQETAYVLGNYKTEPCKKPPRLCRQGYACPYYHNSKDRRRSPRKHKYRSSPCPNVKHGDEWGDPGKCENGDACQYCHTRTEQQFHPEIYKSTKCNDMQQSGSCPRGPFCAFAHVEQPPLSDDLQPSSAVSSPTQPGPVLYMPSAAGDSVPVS

B1: chr8:88032264:88032379:-|3pUTR|ENSG00000156103|unk|FALSE|bound_elsewhere (ssRNA)
RNA: GGGAGUUCUACAGUCCGACGAUCACUCCUUAUAAUGUUGCGUCAUUAAAGGUCAAGGGGUCAUGCUAUUAAUCUCAUUGCUAUAGACCAUUAACAUGACUGAACUUUUCCACAAAGUACUUAUGUUUACAAUGCUAUAACCCUCAACAGAGGAUUGAGCAUCA
B2: chr3:98797769:98798349:-|3pUTR|ENSG00000057019|msi1|FALSE|unique (ssRNA)
RNA: GGGAGUUCUACAGUCCGACGAUCUUGUUUUUGAUACCUCCUGGCAGCUUCCAUGUCACCACUUGUUCAUACCUGCCCAGAGCUAGUUUUAGACAUGGCAAAAUAGAAAUCAUCUGUAAUUUAUUAGCUAACAAUGUAAAACCACAACAGAGGAUUGAGCAUCA
B3: chr2:112646914:112647020:+|CDS|ENSG00000144136|unk|total|mutant (ssRNA)
RNA: GGGAGUUCUACAGUCCGACGAUCGCUCAUCCUGGGCUUCAUUAUUGCAUUUGUCUUGGCAUUCUCCGUGGGAGCCAAUGAUGCCGCAAAUUCUUUUGGUACAGCUGUGGGCUCAGGUGCCGUGACCCUGAAGCAAGCCUGCAUCAACAGAGGAUUGAGCAUCA
B4: chr9:136116483:136116900:-|CDS|ENSG00000238227|control|control|control (ssRNA)
RNA: GGGAGUUCUACAGUCCGACGAUCUUCGACGUGUACAUCAAGACGCGCUGGCUGUACGGCUUCAUCCGCUUCCUACUCUACUUUAGCUGCAGCCUGUUCACUGCGGCGCUCUGGGGUGCGCUGGCCGCCCUCUUCUGCCUACAGCAACAGAGGAUUGAGCAUCA
B5: chr17:7656804:7656905:+|3pUTR|ENSG00000129244|unk|total|mutant (ssRNA)
RNA: GGGAGUUCUACAGUCCGACGAUCGCAUGUGCCACCAUGCCCGGCUAAUUUCUUUCUUUCUUUUUUUUUUUUUUUGCAUUUUUCCGCCGAGAUGGGGGUUUCUCCUUGUUGGUCAGGCUGGUCUCGAACUCCCGACCUCAGGUGCAACAGAGGAUUGAGCAUCA
B6: chr9:74692981:74693082:+|3pUTR|ENSG00000198963|unk|total|mutant (ssRNA)
RNA: GGGAGUUCUACAGUCCGACGAUCUUUUAUAUUACUUCCGAAUGUAACCGGUUUUUGUCCUUAUUUUAUGUCCUGUAAAUUAUCCGUUCAAUACUGUCCGCAUUCCCGGAUAAUGCACACAUGAUUUCUGAAUGUUUUCUGUAACAACAGAGGAUUGAGCAUCA
B7: chr10:75150949:75151073:+|CDS|ENSG00000156671|unk|FALSE|unique (ssRNA)
RNA: GGGAGUUCUACAGUCCGACGAUCUGUUCGAAGAUUGGACCCAGAAUACUGGAAGACUAUACUGAGUUGUAUAUAUGUUUUUAUAGUAUUUGGAUUUACAUCUUUCAUUAUGGUUAUAGUCCAUGAGCGAGUGCCUGACAUGCACAACAGAGGAUUGAGCAUCA
B8: chr2:69942770:69942871:+|3pUTR|ENSG00000059728|unk|FALSE|unique (ssRNA)
RNA: GGGAGUUCUACAGUCCGACGAUCUGUUUCCAGAUGUUUCUUUAUGUAAAUAUGACGCCAAUGUAAAUCCUGUGUCAAGAUCAUAGAGAAUGGUGCUUUUUACUACAGUUAGCACAUGCAUUUUUAGAAACUACUACAUGUUUUCAACAGAGGAUUGAGCAUCA
B9: chr14:95709946:95710881:-|three_prime_utr|ENSG00000100721|control|control|control (ssRNA)
RNA: GGGAGUUCUACAGUCCGACGAUCUCUGGGAGGAAUGGACAGACAGAGGAUGAGCUCUACCCAGGGCCUGCAGGACCUGCCUGUAGCCCACUCUGCUCGCCUUAGCACUACCACUCCUGCCAAGGAGGAUUCCAUUUGGCAGAGCAACAGAGGAUUGAGCAUCA
B10: chr5:111496093:111496242:-|3pUTR|ENSG00000164211|unk|FALSE|unique (ssRNA)
RNA: GGGAGUUCUACAGUCCGACGAUCUUUACAUGUAUAGUUAAAUAUUAAAAUUCAUCUCUUGCAGUUCAAUAAAAGCUAUAGUAUAGAUUUUAUUUUUAAGAAGUUUAUAUAAUUCUUUUGUGAACCAAUAUGUAAAACUAGAAUCAACAGAGGAUUGAGCAUCA
B11: chr16:21983864:21984660:-|three_prime_utr|ENSG00000155714|control|control|control (ssRNA)
RNA: GGGAGUUCUACAGUCCGACGAUCAAAGAAAAUUGAGCUGGCAAAAGAUGAAUCUUUCACAAGCAGUGAUGAUAAUGAAAAUGUAGAUUUAGAUAAAAGACUUCAAUAUUAUAGAUAUCCGUGGUCAACUGUGCAUCACCCUGCCAACAGAGGAUUGAGCAUCA
B12: ENSG00000125170:stop:overlap|stop_codon|ENSG00000125170|stop_codon|NA|stop_codon (ssRNA)
RNA: GGGAGUUCUACAGUCCGACGAUCAGCGGCUGGAGAAGUAUCCAGAUGAGAAGUCGGUGUGCCUCCGGGGCUGCCCCAAGAGCUAGAGGCAGAGGAGUGGUACAAGACACUAUCUGUGGAGUGUCUGGGGUCCCGCCUCAACGACAACAGAGGAUUGAGCAUCA
B13: chr1:90030187:90030288:+|3pUTR|ENSG00000162664|unk|total|mutant (ssRNA)
RNA: GGGAGUUCUACAGUCCGACGAUCACCCAGUUCAAGUCAUGAUAAUUUCUUGUUAACUAAUCUUGAUUCCACCCUUACCAUGACCGAUUCAGUUUUCUACACAAGUAUAAGCUUUUAAAAAUGUAAUUCAGAUGAUGUUAAUCUCAACAGAGGAUUGAGCAUCA
B14: chr12:85803847:85803948:-|3pUTR|ENSG00000198774|unk|FALSE|unique (ssRNA)
RNA: GGGAGUUCUACAGUCCGACGAUCCCAAACCCAUGUUCAUUCACUGAGUGAGGUAUAGUGUGGGUUACAGAGAAAAUCAGUCAUAGUGUUAUUUGUUUAUGUCCUAUCUACAAAAGUUGCAAUGAUGGAAUUUGGAACCCUUCUCAACAGAGGAUUGAGCAUCA

Target: T1, UNK ZnF1-6 (called full-length)
Assay: nsRBNS (natural sequence RNA bind-n-seq); RBNS binding buffer (assumed for nsRBNS): 25 mM Tris pH 7.5, 150 mM KCl, 3 mM MgCl2, 0.01% Triton X-100, 500 ug/ml BSA, 20 U/ml SUPERase-In, 4 C; UNK is unkempt and MSI1 is Musashi-1; names of the RNAs are library labels; protein concentration not given here; high values mean tight binding

| Binder | binding signal [enrichment R] |
| --- | --- |
| B1 | 0.449 |
| B2 | 4.74 |
| B3 | 0.77 |
| B4 | 0.684 |
| B5 | 3.94 |
| B6 | 0.468 |
| B7 | 0.389 |
| B8 | 0.538 |
| B9 | 0.843 |
| B10 | 2.13 |
| B11 | 2.22 |
| B12 | 1.01 |
| B13 | 0.405 |
| B14 | 0.351 |

Source: article PMC12136788
